# Measurements as given in the supplement of paper PMC8728848.
# The list shows a part of the results.
# B1: Epa12 (Candida glabrata) (protein)
# chain: MGSSHHHHHHSSGLVPRGSHMLEPDNSLQIFDSFLSNPSKYPLGCSPKITNPKKGLSMELYSYPYRKKGSHPCWDPAYLDPNFPRVGYKKNKLIARVDGVSGDINFNFHPKRQCTPIADYLPPNFNYNEPITTTNFTMLLYGYFKPKVTGLHTFDISADDLLFMNFGAGNAFDCCRRDSTADTFGNYVAWAIWGRRIVRNKLTVRLDKGIYYPLRLFFNNRDYYGQMRLTFKTEHGSERITDFSDYFFSVDDTSEGCPGLITYESECADVKSSTVLETDYITIQAEKE
# What was measured:
# Experiment in all cases: glycan array binding signal (z-score within array); higher = stronger binding
# Settings in all cases: glycan notation: IUPAC condensed, linker removed
# [1] = molecular target: Fuc(a1-2)Gal(b1-4)GlcNAc6S
# How it was run: (§1)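 From the Consortium for Functional Glycomics database, 3228 arrays were curated, keeping only those whose protein sequence was available. Binding is given as a within-array Z-score averaged across arrays sharing a protein sequence and across linkers. Negative Z-scores can be read as non-binding.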
# [2] = molecular target: Fuc(a1-2)Gal(b1-4)[Fuc(a1-3)]GalNAc(b1-3)Gal(b1-4)[Fuc(a1-3)]GlcNAc
# How it was run: as §1
# [3] = molecular target: Fuc(a1-2)Gal(b1-4)[Fuc(a1-3)]GalNAc(b1-3)Gal(b1-4)[Fuc(a1-3)]GlcNAc(b1-3)Gal(b1-4)[Fuc(a1-3)]GalNAc
# How it was run: as §1
# [4] = molecular target: Fuc(a1-2)Gal(b1-4)[Fuc(a1-3)]GlcNAc
# How it was run: as §1
# [5] = molecular target: Fuc(a1-2)Gal(b1-4)[Fuc(a1-3)]GlcNAc(b1-2)Man(a1-3)[Fuc(a1-2)Gal(b1-4)[Fuc(a1-3)]GlcNAc(b1-2)Man(a1-6)]Man(b1-4)GlcNAc(b1-4)[Fuc(a1-6)]GlcNAc
# How it was run: as §1
# [6] = molecular target: Fuc(a1-2)Gal(b1-4)[Fuc(a1-3)]GlcNAc(b1-2)[Fuc(a1-2)Gal(b1-4)[Fuc(a1-3)]GlcNAc(b1-4)]Man(a1-3)[Fuc(a1-2)Gal(b1-4)[Fuc(a1-3)]GlcNAc(b1-2)Man(a1-6)]Man(b1-4)GlcNAc(b1-4)GlcNAc
# How it was run: as §1
# [7] = molecular target: Fuc(a1-2)Gal(b1-4)[Fuc(a1-3)]GlcNAc(b1-3)Gal(b1-4)[Fuc(a1-3)]GlcNAc
# How it was run: as §1
# [8] = molecular target: Fuc(a1-2)Gal(b1-4)[Fuc(a1-3)]GlcNAc(b1-3)Gal(b1-4)[Fuc(a1-3)]GlcNAc(b1-3)Gal(b1-4)[Fuc(a1-3)]GlcNAc
# How it was run: as §1
# [9] = molecular target: Fuc(a1-2)Gal(b1-4)[Fuc(a1-3)]GlcNAc(b1-3)GalNAc
# How it was run: as §1
# [10] = molecular target: Fuc(a1-2)Gal(b1-4)[Fuc(a1-3)]GlcNAc(b1-3)[Neu5Ac(a2-6)Gal(b1-4)GlcNAc(b1-6)]Gal(b1-4)Glc
# How it was run: as §1
# [11] = molecular target: Fuc(a1-2)Gal3S(b1-4)GlcNAc
# How it was run: as §1
# [12] = molecular target: Fuc(a1-2)Gal6S(b1-3)GlcNAc
# How it was run: as §1
# [13] = molecular target: Fuc(a1-2)Gal6S(b1-3)GlcNAc6S
# How it was run: as §1
# Fuc(a1-2)Gal6S(b1-4)Glc = molecular target: Fuc(a1-2)Gal6S(b1-4)Glc
# How it was run: as §1
# [14] = molecular target: Fuc(a1-2)Gal6S(b1-4)Glc6S
# How it was run: as §1
# Fuc(a1-2)GlcNAc = molecular target: Fuc(a1-2)GlcNAc
# How it was run: as §1
# Fuc(a1-2)[Gal(a1-3)]Gal = molecular target: Fuc(a1-2)[Gal(a1-3)]Gal
# How it was run: as §1
# [15] = molecular target: Fuc(a1-2)[Gal(a1-3)]Gal(b1-3)GalNAc
# How it was run: as §1
# [16] = molecular target: Fuc(a1-2)[Gal(a1-3)]Gal(b1-3)GalNAc(b1-3)Gal(a1-4)Gal(b1-4)Glc
# How it was run: as §1
# [17] = molecular target: Fuc(a1-2)[Gal(a1-3)]Gal(b1-3)GlcNAc
# How it was run: as §1
# [18] = molecular target: Fuc(a1-2)[Gal(a1-3)]Gal(b1-3)GlcNAc(b1-2)Man(a1-3)[Fuc(a1-2)[Gal(a1-3)]Gal(b1-3)GlcNAc(b1-2)Man(a1-6)]Man(b1-4)GlcNAc(b1-4)GlcNAc
# How it was run: as §1
# [19] = molecular target: Fuc(a1-2)[Gal(a1-3)]Gal(b1-3)GlcNAc(b1-2)Man(a1-3)[Fuc(a1-2)[Gal(a1-3)]Gal(b1-3)GlcNAc(b1-2)Man(a1-6)]Man(b1-4)GlcNAc(b1-4)[Fuc(a1-6)]GlcNAc
# How it was run: as §1
# [20] = molecular target: Fuc(a1-2)[Gal(a1-3)]Gal(b1-3)GlcNAc(b1-3)GalNAc
# How it was run: as §1
# [21] = molecular target: Fuc(a1-2)[Gal(a1-3)]Gal(b1-3)GlcNAc(b1-6)GalNAc
# How it was run: as §1
# [22] = molecular target: Fuc(a1-2)[Gal(a1-3)]Gal(b1-4)Glc
# How it was run: as §1
# [23] = molecular target: Fuc(a1-2)[Gal(a1-3)]Gal(b1-4)GlcNAc
# How it was run: as §1
# [24] = molecular target: Fuc(a1-2)[Gal(a1-3)]Gal(b1-4)GlcNAc(b1-2)Man
# How it was run: as §1
# [25] = molecular target: Fuc(a1-2)[Gal(a1-3)]Gal(b1-4)GlcNAc(b1-2)Man(a1-3)[Fuc(a1-2)[Gal(a1-3)]Gal(b1-4)GlcNAc(b1-2)Man(a1-6)]Man(b1-4)GlcNAc(b1-4)GlcNAc
# How it was run: as §1
# [26] = molecular target: Fuc(a1-2)[Gal(a1-3)]Gal(b1-4)GlcNAc(b1-2)Man(a1-3)[Fuc(a1-2)[Gal(a1-3)]Gal(b1-4)GlcNAc(b1-2)Man(a1-6)]Man(b1-4)GlcNAc(b1-4)[Fuc(a1-6)]GlcNAc
# How it was run: as §1
# [27] = molecular target: Fuc(a1-2)[Gal(a1-3)]Gal(b1-4)GlcNAc(b1-3)GalNAc
# How it was run: as §1
# [28] = molecular target: Fuc(a1-2)[Gal(a1-3)]Gal(b1-4)GlcNAc(b1-3)[Fuc(a1-2)[Gal(a1-3)]Gal(b1-4)GlcNAc(b1-6)]GalNAc
# How it was run: as §1
# [29] = molecular target: Fuc(a1-2)[Gal(a1-3)]Gal(b1-4)GlcNAc(b1-6)GalNAc
# How it was run: as §1
# [30] = molecular target: Fuc(a1-2)[Gal(a1-3)]Gal(b1-4)[Fuc(a1-3)]Glc
# How it was run: as §1
# [31] = molecular target: Fuc(a1-2)[Gal(a1-3)]Gal(b1-4)[Fuc(a1-3)]GlcNAc
# How it was run: as §1
# [32] = molecular target: Fuc(a1-2)[Gal(a1-3)]Gal(b1-4)[Fuc(a1-3)]GlcNAc(b1-3)GalNAc
# How it was run: as §1
# [33] = molecular target: Fuc(a1-2)[Gal(a1-4)]Gal(b1-4)GalNAc
# How it was run: as §1
# [34] = molecular target: Fuc(a1-2)[Gal(a1-4)]Gal(b1-4)GlcNAc
# How it was run: as §1
# [35] = molecular target: Fuc(a1-2)[GalNAc(a1-3)]Gal
# How it was run: as §1
binder,measurement,setting,value
B1,glycan array binding signal (z-score),[1],0.087
same,glycan array binding signal (z-score),[2],-0.28
same,glycan array binding signal (z-score),[3],-0.275
same,glycan array binding signal (z-score),[4],-0.339
same,glycan array binding signal (z-score),[5],-0.305
same,glycan array binding signal (z-score),[6],-0.277
same,glycan array binding signal (z-score),[7],-0.352
same,glycan array binding signal (z-score),[8],-0.387
same,glycan array binding signal (z-score),[9],-0.218
same,glycan array binding signal (z-score),[10],-0.255
same,glycan array binding signal (z-score),[11],0.06
same,glycan array binding signal (z-score),[12],-0.227
same,glycan array binding signal (z-score),[13],0.095
same,glycan array binding signal (z-score),Fuc(a1-2)Gal6S(b1-4)Glc,-0.216
same,glycan array binding signal (z-score),[14],0.024
same,glycan array binding signal (z-score),Fuc(a1-2)GlcNAc,-0.268
same,glycan array binding signal (z-score),Fuc(a1-2)[Gal(a1-3)]Gal,1.07
same,glycan array binding signal (z-score),[15],0.314
same,glycan array binding signal (z-score),[16],-0.19
same,glycan array binding signal (z-score),[17],-0.006
same,glycan array binding signal (z-score),[18],-0.314
same,glycan array binding signal (z-score),[19],-0.1
same,glycan array binding signal (z-score),[20],-0.246
same,glycan array binding signal (z-score),[21],-0.117
same,glycan array binding signal (z-score),[22],-0.13
same,glycan array binding signal (z-score),[23],0.356
same,glycan array binding signal (z-score),[24],-0.032
same,glycan array binding signal (z-score),[25],-0.2
same,glycan array binding signal (z-score),[26],-0.163
same,glycan array binding signal (z-score),[27],-0.008
same,glycan array binding signal (z-score),[28],0.162
same,glycan array binding signal (z-score),[29],-0.348
same,glycan array binding signal (z-score),[30],-0.326
same,glycan array binding signal (z-score),[31],-0.256
same,glycan array binding signal (z-score),[32],-0.164
same,glycan array binding signal (z-score),[33],-0.204
same,glycan array binding signal (z-score),[34],4.84
same,glycan array binding signal (z-score),[35],-0.313
